Test results published in PubChem BioAssay (NCI).
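All cell lines were grown in 96-well plates and treated with compound for 48 hours. Abbreviation: GI50, concentration required for 50% inhibition of growth. Definition used: TGI = concentration required for complete inhibition of growth.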

System: NCI-H322M lung
Experiment: DTP human tumour cell line panel, 48 h

`Cc1ccc(-c2c(C#N)c(O)n(NS(=O)(=O)c3ccccc3)c(=O)c2C#N)cc1` showed a TGI greater than 100 µM.

`O=C1c2c(ccc3c2CCCC3)CC12Cc1ccccc1C2` showed a TGI greater than 79 µM.

Work on `CC(C)(C)OC(=O)NCCNC(=O)OCc1ccccc1` yielded a TGI greater than 100 µM.

Compound `Nc1cc2[nH]c(=O)c3cc(Cl)ccc3c2cc1Cl` has a TGI of 48.7 µM.

Work on `CCCCCC1C2C(=O)NC(=O)C1C(=O)NC2=O` (configuration not stated) yielded a TGI greater than 100 µM.

`CCN(CC)CCCC(C)NC(=S)N/N=C(\C)c1ccccn1` (configuration not stated) was tested, and the GI50 was 3.33 µM and the TGI was greater than 100 µM.

`CCOc1ccccc1Nc1nc(C)c(C(=O)CC(=O)C(=O)Nc2ccccc2)s1` showed a TGI greater than 100 µM.

`COc1cc2c(oc(=O)c3c4oc([Si](C)(C)C)cc4cc(OC)c23)c2cccc(O)c12` was tested, and the TGI was greater than 100 µM.

With `CN1C(=N\S(=O)(=O)c2ccc(Cl)cc2)/C(=N/N=P(c2ccccc2)(c2ccccc2)c2ccccc2)c2ccccc21` the TGI was greater than 100 µM.

Work on `O=C(Cc1nc2ccccc2s1)C(=O)Nc1ccccc1C(F)(F)F` yielded a TGI greater than 100 µM.

For `Nc1nc(NC(=O)C2=NS(=O)(=O)c3cc(S(N)(=O)=O)c(Cl)cc3N2)n[nH]1`, the TGI was greater than 100 µM.

Compound `CC(C)(C)C(=O)C(C#N)C(=O)C(C)(C)C` has a TGI greater than 100 µM.

With `CCc1cccc(C(C)C)c1C1C(=O)C(=O)N(c2nc3ccccc3s2)C(=O)C1=O` the TGI was greater than 100 µM.

With `CCS(=O)(=O)Nc1ccc(Oc2ccc(F)cc2F)c(-c2cn(C)c(=O)c3[nH]ccc23)c1` the GI50 was 0.0459 µM and the TGI was 18.4 µM.

`COC(=O)C1(C(=O)OC)CC2=C(S(=O)(=O)c3ccccc3)C[C@@H](C#N)[C@H]2C1` was tested, and the TGI was greater than 100 µM.

`CC(=S)NC1C(Oc2ccc3c(C)cc(=O)oc3c2)OC(CO)C(O)C1O` (configuration not stated) gave a TGI greater than 100 µM.

`CC(C)(C)OC(=O)N1CC(COS(C)(=O)=O)c2ccc(O)cc21` (configuration not stated) showed a TGI of 7.85 µM.

`C/C=C\C(C)=C/C(C)C(=O)CC(O)CC1CC(=O)NC(=O)C1` (configuration not stated) was tested, and the TGI was greater than 100 µM.

In the case of `CC(C)(C)OC(=O)N(CCCN)CCCCN(CCCN)C(=O)OC(C)(C)C`, the TGI is reported as greater than 100 µM.

In the case of `CCC(c1ccc(N(C)C)cc1)C1NC(=S)NC1=O` (configuration not stated), the TGI is reported as greater than 100 µM.

`O=C(NC(c1ccccc1)C(O)C(=O)OCc1ccc2c(c1)C(=O)c1ccccc1C2=O)c1ccccc1` (configuration not stated) gave a TGI greater than 79.9 µM.

`COc1ccc2c(c1)CCC1C2CCC2(C)C1CC[C@@]2(O)CNC(=O)/C=C/c1ccc(O)c(O)c1` (some centres not stated) showed a GI50 of 4.29 µM and a TGI of 17.4 µM.

For `C[Si](C)(C)C1=C2C(=O)c3ccccc3C(=O)C2=C([Si](C)(C)C)[C@@H]2CCCC[C@H]12`, the TGI was greater than 100 µM.

With `COC(=O)c1cc(CNCCc2c[nH]c3ccccc23)on1` the TGI was greater than 100 µM.

For `COc1cc(NS(C)(=O)=O)ccc1N1Cc2cnc3ccc4[nH]ccc1c4c23`, the TGI was greater than 100 µM.

Compound `O=C(CCc1nnc2s/c(=C\c3ccc(Cl)cc3Cl)c(=O)n12)Nc1cc(Cl)c(Cl)cc1Cl` has a GI50 greater than 100 µM and a TGI greater than 100 µM.

With `O=c1[nH]c2cccccc-2c1-c1nc2ccccc2[nH]1` the TGI was greater than 100 µM.

`C=C1C(=O)O[C@H]2[C@H]1CC/C(Cn1cc(CNC(=O)c3cc4ccccc4[nH]3)nn1)=C\CC[C@@]1(C)O[C@@H]21` was tested, and the GI50 was 14.2 µM and the TGI was 27.6 µM.

`Cc1c2cccc-2c(N(C)C)cc2c1[nH]c1ccccc12` showed a TGI of 21.5 µM.

Work on `CC(C)(Oc1ccc(C2C[C@H]2Cl)cc1)C(=O)O` (some centres not stated) yielded a TGI greater than 100 µM.

In the case of `C#Cc1cccc(NC(=O)Nc2cccc(NC(=O)CCl)c2)c1`, the GI50 is reported as greater than 82.5 µM and the TGI is reported as greater than 82.5 µM.

`O=S(=O)(N1CCCCN(S(=O)(=O)C(F)(F)F)CCCN(S(=O)(=O)C(F)(F)F)CCCN(S(=O)(=O)C(F)(F)F)CCCCN(S(=O)(=O)C(F)(F)F)CCCN(S(=O)(=O)C(F)(F)F)CCC1)C(F)(F)F` was tested, and the TGI was greater than 100 µM.

`OB1OCc2ccccc21` was tested, and the TGI was greater than 100 µM.

With `COc1cc2c(cc1C)NC(=O)/C2=C/c1c(Cl)n(C)c2ccccc12` the TGI was 27.5 µM.

In the case of `CCCCCCCCCCCCOC1C(C(COC2OC(C(O)CO)C3OC(C)(C)OC23)OC(=O)Nc2ccc([N+](=O)[O-])cc2)OC2OC(C)(C)OC21` (configuration not stated), the GI50 is reported as 6.01 µM and the TGI is reported as 19 µM.

In the case of `CN1CCN(c2nc3c(c(=O)n(C)c(=O)n3C)n2C)CC1`, the TGI is reported as greater than 100 µM.

With `Nc1cc(N)c2nc(-c3ccccc3)c(Sc3ccc(F)cc3)nc2c1` the GI50 was 20.6 µM and the TGI was 38.1 µM.

In the case of `Cc1cccc2ns[s+]c12`, the TGI is reported as greater than 100 µM.

`CSc1nc(Cl)c2c(n1)Sc1ncnn1C2O` (configuration not stated) was tested, and the TGI was 29.6 µM.
